The source of these data is the supplement of paper PMC4604168 (melanoma cell lines).

The list shows a part of the results. Repeats are few or missing, and single values can be far off.
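Note: cell number obtained by counting DAPI-stained nuclei in high-throughput microscope images with image analysis software, screen run in 1,536-well plates.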

The subject of the assay is UACC62. Kind of assay: cell count relative to DMSO control; melanoma cells; higher = more viable cells. The settings on record: library dose: low library concentration; 72 h.
Turning to `OCc1c[nH]c2ccccc12` [Indole-3-carbinol] + CN(C)S(=O)(=O)c1ccc2c(c1)/C(=C/c1cc3c([nH]1)CCCC3)C(=O)N2 [SU6656] (first compound 0.8 µM, partner dose 0.4 µM), the cell count was determined as 90.7%. As for `COCC[n+]1c2c(n(Cc3cnccn3)c1C)C(=O)c1ccccc1C2=O` + NC(=O)Nc1cc(-c2cccc(F)c2)sc1C(=O)N[C@H]1CCCNC1 [AZD7762] (first compound 0.0004 µM, partner dose 0.02 µM), the figure is 98.2%; as for `Nc1cccc2c1CN(C1CCC(=O)NC1=O)C2=O` (centres undefined) [lenalidomide] + O=C(O)c1ccc(-c2c[nH]c3ncc(-c4ccccc4)cc23)cc1C1CCCC1 [GSK650394] (first compound 1 µM, partner dose 0.16 µM), 103%.

In turn, `COCC[n+]1c2c(n(Cc3cnccn3)c1C)C(=O)c1ccccc1C2=O` + Cn1cncc1[C@@](N)(c1ccc(Cl)cc1)c1ccc2c(c1)c(-c1cccc(Cl)c1)cc(=O)n2C [tipifarnib] (first compound 0.0004 µM, partner dose 0.01 µM) registered a cell count of 85.8%.
